Measured values as given in paper PMC6919601, “Identification of Plasmodium dipeptidyl aminopeptidase allosteric inhibitors by high throughput screening” (PLoS ONE, 2019).
About 230 (0.21%) of roughly 110,000 compounds showed an effect of 50% or more. The list shows a part of the results.

Molecular target: DPAP1 (Plasmodium falciparum, UniProt Q8IIJ9)
Experiment: primary screen, percent inhibition; read by cleavage of a fluorogenic dipeptide substrate; higher = more effect of the substance
Parameters: species or system P. falciparum D10 trophozoite lysates; single well
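Further: 30 min substrate incubation versus DMSO and 10 µM JCP410 controls.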

DPAP1, sequence (Q8IIJ9 whole entry, looked up): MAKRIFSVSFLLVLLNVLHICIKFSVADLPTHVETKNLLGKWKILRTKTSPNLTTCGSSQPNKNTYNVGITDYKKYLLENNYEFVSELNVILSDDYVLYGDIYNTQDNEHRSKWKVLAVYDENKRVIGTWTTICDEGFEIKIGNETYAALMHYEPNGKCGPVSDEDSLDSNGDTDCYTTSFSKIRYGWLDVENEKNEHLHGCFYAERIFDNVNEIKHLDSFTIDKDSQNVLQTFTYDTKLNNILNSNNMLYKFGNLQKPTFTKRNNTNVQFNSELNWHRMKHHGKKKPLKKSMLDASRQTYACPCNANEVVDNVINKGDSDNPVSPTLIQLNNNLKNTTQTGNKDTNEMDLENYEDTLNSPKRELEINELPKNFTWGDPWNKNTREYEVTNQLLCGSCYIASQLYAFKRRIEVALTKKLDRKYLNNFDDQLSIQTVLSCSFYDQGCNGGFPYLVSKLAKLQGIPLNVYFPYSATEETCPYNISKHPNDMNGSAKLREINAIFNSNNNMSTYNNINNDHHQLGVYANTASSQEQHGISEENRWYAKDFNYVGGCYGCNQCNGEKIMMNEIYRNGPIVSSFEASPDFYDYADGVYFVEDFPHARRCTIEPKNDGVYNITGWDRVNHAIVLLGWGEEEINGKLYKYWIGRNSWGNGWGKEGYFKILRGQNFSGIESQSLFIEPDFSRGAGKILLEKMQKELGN

SMILES | % Inhibition @ 10 uM
CN1CCC(N2CCCC(O)C2)CC1 (centres unmarked) | 1.9%
O=C(C1CCCN(S(=O)(=O)N2CCOCC2)C1)N1CCN(c2ccccn2)CC1 (centres unmarked) | 5.43%
COc1ccc(C)cc1NC(=O)CN(Cc1ccc(Cl)cc1)S(=O)(=O)c1ccccc1 | 3.53%
O=c1onc(-c2cccs2)n1Cc1ccccn1 | -0.361%
CNC(=O)Cn1nc(C)c2c(C)n(-c3ccccc3)nc2c1=O | 1.11%
CC1=C(C(=O)Nc2cccnc2)C(c2ccc(Cl)cc2)n2nc(CCCO)nc2N1 (centres unmarked) | 0.64%
COc1cc(CC2C(=O)N(C)C(=O)N(C)C2=O)cc(Br)c1O | 3.8%
COc1ccc(CC(=O)Nc2cc(C)ccc2C)cc1 | -3.04%
CC(C)(C)NC(=O)Cn1cnc2c(cnn2-c2ccccc2)c1=O | 7.16%
CCc1c(C)sc(NC(=O)Cc2ccc(OC)cc2)c1C#N | -2.53%
CC(C)c1ccc(S(=O)(=O)N2CCCCC2)cc1 | -6.32%
O=[N+]([O-])c1ccccc1CNC1CCCC1 | 3.42%
Cc1nc2cc(Cl)cc(Cl)c2c(=O)n1-c1ccccc1Cl | -1.5%
COC(=O)C1=C(C)N(CCc2ccccc2)C(=O)/C1=C\c1cc(C)n(-c2ccccc2F)c1C | -3.63%
COc1cc2c(cc1OC)C(C(=O)NCCC1=CCCCC1)C(c1cccs1)N(C)C2=O (centres unmarked) | 3.33%
CN(C)CC1CSCCC1(O)c1ccc(C(F)(F)F)cc1 (centres unmarked) | -11.2%
Cn1ncc2c(N3CCN(CCO)CC3)ncnc21 | 2.56%
C=C(C)Cn1c(-c2ccccc2)nc2ccccc21 | 5.81%
CSc1nnc(NC(=O)c2cc(=O)c3cc(Cl)ccc3o2)s1 | -5.08%
CC1CN(Cc2ccc(Cl)c(Cl)c2)CC(C)O1 (centres unmarked) | -4.15%
Cc1ccc(CNC(=O)Cn2ccn(Cc3ccc(Cl)cc3)c(=O)c2=O)cc1 | -2.88%
O=C(O)c1ccc(CNCCc2ccccc2Cl)s1 | 7.62%
CCCCOc1ccc(-c2nc(-c3ccc(Br)cc3)no2)cc1 | -2.32%
COCCCNC(=O)C1c2ccccc2C(=O)N(CCOC)C1c1cccs1 (centres unmarked) | -1.52%
CCOc1ccc2c(c1)C(SCC(=O)N1CCN(c3ncccn3)CC1)CC1(CCCCC1)O2 (centres unmarked) | -7.78%
CCOc1ccc(-c2nc(CSCC(=O)N3CCCC3)c(C)o2)cc1 | 0.718%

SMILES | % Inhibition @ 10 uM
O=C(CCCn1nc(-c2ccccc2)c2ccccc21)NCc1ccc2c(c1)OCO2 | -6.68%
O=C(COc1ccc(Br)cc1)Nc1ccc(N2CCN(C(=O)c3ccccc3)CC2)cc1 | 0.755%
O=C(NCc1ccco1)c1ccc(CS(=O)(=O)c2cccc(C(F)(F)F)c2)o1 | -1.28%
Cc1ccc(-c2ccc(/C=C3/C(=N)N4C(=NC3=O)SN=C4S(C)(=O)=O)o2)cc1Cl | -3.39%
CCOc1ccc(C2CC(c3cccc(OC)c3)Nc3nc(N)nn32)cc1 (centres unmarked) | -1.86%
O=C(NCCSc1c(-c2ccccc2)[nH]c2ccccc12)C1CC1 | 1.85%
c1cc2c(cc1CN1CCCCCC1)OCO2 | 1.27%
O=C(C1CCN(c2nn3cc(-c4ccc(F)cc4)nc3s2)CC1)N1CCCCCC1 | -4.1%
CSc1ccc(/C=C2/SC(=O)N(CN3CCOCC3)C2=O)cc1 | -0.661%
O=C(Nc1ccccc1C(=O)N1CCCCC1)C1CCCCC1 | 4.11%
COc1ccc(C2C3=C(O)CC(C)(C)CC3=NC3=C2C(=O)CC(C)(C)C3)cc1Br (centres unmarked) | -2.54%
Cc1ccc(/C=C(\C#N)c2nn(-c3ccccc3)c(N)c2C#N)o1 | -2.39%
Cc1cccc(C(=O)O/N=C(\N)c2cccnc2)c1 | 3.79%
CCOC(=O)Nc1scc(-c2cc(C)ccc2C)c1C#N | -1.98%
Cc1sc2nc(SCCCC(=O)NCCO)nc(O)c2c1C | -4.76%
Nc1ncnc2c1nc(S)n2Cc1ccccc1 | 1.96%
Clc1ccc(-c2nc3n(n2)CCCS3)cc1 | 0.124%
O=C(c1cccc(C(=O)N2CCN(Cc3ccccc3)CC2)c1)N1CCN(Cc2ccccc2)CC1 | -9.66%
N#Cc1c(N)nc2c(c1-c1ccc(Cl)cc1Cl)CCCCCC2 | -3.13%
Cc1ccc(NC(=O)CNCc2ccco2)cc1Cl | 0.605%
O=C(O)c1ccc(NS(=O)(=O)c2ccc(Br)cc2)cc1 | -1.52%
CCC(C)NC(=O)c1ccccc1C(=O)NC(C)CC (centres unmarked) | -4.21%
COc1cc(S(=O)(=O)NCCOc2ccccc2)c(OC)c2c(C)cc(O)nc12 | -3.75%
CCOC(=O)c1sc(NC(=O)/C(C#N)=C/c2ccccc2)nc1C | 3.86%
NC(=O)c1cc(S(=O)(=O)NCCN(Cc2ccco2)C2CCCC2)cs1 | -1.23%
O=C(O)c1ccccc1C(=O)N(Cc1ccccc1)Cc1ccccc1 | -0.95%

SMILES | % Inhibition @ 10 uM
O=C(NCc1ccc2c(c1)OCO2)c1cnc2ccc(S(=O)(=O)N3CCOCC3)cc2c1O | -0.256%
O=C(Cn1ncc2c1-c1ccccc1OC2)NC1CCCCC1 | 0.0579%
CCOC(=O)c1ccc(-n2c(C)cc(C=C3C(=O)N(C)C(=O)N(C)C3=O)c2C)cc1 | 4.95%
CCOc1ccc(-c2nonc2NC(=O)c2ccc(OC)c(Cl)c2)cc1OCC | 0.248%
CCCCCn1c(C)c(C(=O)O)c(O)c(-c2ccccc2)c1=O | 2.36%
O=C1N=C(N2CCCCC2)S/C1=C\c1ccc(Br)cc1 | 2.45%
COC(=O)c1c(S)nc2ccccc2c1O | -7.62%
CCC(C)NC(=O)CN1C(=O)CSc2nc(C)cc(C)c21 (centres unmarked) | -2.37%
Cc1ccc(C)c2nc(O)c(CCN3C(=O)c4ccccc4C3=O)cc12 | 3.67%
CCSc1ncc(Cl)c(C(=O)Nc2sc3c(c2C(N)=O)CCCC3)n1 | 2.19%
CC(Sc1nc2ccccc2[nH]1)c1ccccc1 (centres unmarked) | 4.59%
COc1ccc(CN(C)S(=O)(=O)c2nnc(NC(=O)c3ccccc3Br)s2)cc1 | 0.709%
C=CC/N=c1\scc(-c2ccc(Cl)cc2)n1CC=C | -4.39%
CCCS(=O)(=O)c1ncc(Cl)c(C(=O)NCc2ccccc2)n1 | -4.64%
COc1ccc(N2C(=O)c3ccccc3NC2c2ccc(OC)c(CN3CCOCC3)c2)cc1 (centres unmarked) | -3.67%
CCO/C(O)=C(\C(C)=N\Cc1ccccc1)c1cc(O)c(Cl)c(Cl)c1O | 3.79%
COc1ccc(/C=C2\SC(=O)N(CCC(=O)Nc3cccc(O)c3)C2=O)cc1OC | 0.83%
COC(=O)C1=CN(C)C=C(C(=O)OC)C1c1ccccc1F | 4.99%
CCOc1ccc(N(CC(=O)N2CCC(C)CC2)S(=O)(=O)c2ccc(Cl)cc2)cc1 | -1.36%
CC(C)CCn1c(O)nc2ccccc21 | 10.4%
Cc1cccc(C)c1NC(=O)C1(NC(=O)c2ccccc2F)CCCC1 | -3.98%
COc1ccc2[nH]cc(CCN(Cc3ccccc3)Cc3ccccc3)c2c1 | 3.16%
Cc1nc2ccccc2n1Cc1ccc(C(C)C)cc1 | 1.12%
CCCNC(=O)Cn1cc2c(n1)-c1c(oc(C(=O)N3CCCC3)c1C)CC2 | 3.35%
COC(=O)c1c(NC(=O)c2c(-c3ccccc3)noc2C)sc(C(=O)N(C)C)c1C | 5.52%
COc1ccccc1C(=O)C(C)C(=O)c1ccccc1 (centres unmarked) | -1.07%

SMILES | % Inhibition @ 10 uM
C=CCc1ccc(OCC(O)CN2CCCCC2)c(OC)c1 (centres unmarked) | -1.66%
O=C(NCCCN1CCN(Cc2ccccc2)CC1)c1cnn(-c2ccccc2)c1-n1cccc1 | 0.137%
O=c1cccc2n1C[C@H]1C[C@@H]2CN(Cc2cccc(F)c2)C1 | 1.8%
COc1ccc(S(=O)(=O)N(CC(=O)NCC2CCCO2)c2ccc(C)cc2)cc1Br (centres unmarked) | -10.2%
COc1ccc(C)cc1NC(=O)COc1ccc(Br)cc1 | 2.45%
O=C(NCc1ccccc1Cl)c1ccc(CNc2c(NC3CCCC3)c(=O)c2=O)cc1 | 6.3%
Cc1cc(C(=O)Nc2sc3c(c2C#N)CCC(C(C)(C)C)C3)no1 (centres unmarked) | 2.4%
Cc1cc(C)c2c(NC(=O)c3ccccc3Cl)nn(C)c2n1 | 19.6%
CCOC(=O)C1=C(C)N=c2s/c(=C\c3ccccc3F)c(=O)n2C1/C=C/c1ccccc1 (centres unmarked) | -6.08%
CCN(CC)C(=O)c1ccc(CS(=O)c2ccccc2Cl)o1 (centres unmarked) | 2.3%
COCCNc1sc(S(=O)(=O)c2ccccc2)nc1S(=O)(=O)c1ccc(C)cc1 | -5.15%
S=C(Nc1ccccc1)N1CCn2c3c(c4cc(C5CCCCC5)ccc42)CCCC31 (centres unmarked) | 3.15%
Cc1nc(-c2ccc(NC(=O)c3ccncc3)cc2)cs1 | 0.583%
CCC(Sc1nc(N)c(C#N)c(-c2ccccc2)c1C#N)C(=O)Nc1cc(C)on1 (centres unmarked) | 4.32%
CC1CCC(NCCc2ccc3c(c2)OCO3)CC1 (centres unmarked) | -10.6%
COCc1cc(C)nc2sc(C(=O)c3ccc(Cl)cc3Cl)c(N)c12 | 1.57%
COc1ccc(CN2CCN(Cc3cccc(F)c3)CC2)c(OC)c1 | -11.4%
O=C(O)CN1CCN(Cc2ccc(F)cc2Cl)C1=O | -4.16%
CC(C)COc1ccc(C=C2C(=O)NC(=O)NC2=O)cc1Br | 20.5%
CN(CCNc1ncnc2onc(-c3ccc(Cl)cc3)c12)C1CCCCC1 | 1.15%
N#C/C(=C\C=C\c1ccccc1)c1nc2ccccc2[nH]1 | -2.98%
CCC1C(=O)N=C(SCC(=O)NC2CCCCC2)NC1=O (centres unmarked) | -4.41%
Clc1cccc(N2CCN(Cc3ccccc3Cl)CC2)c1 | -1.38%
